± gives the standard error. This sample is rich in variants without activity.
B1: glmS ribozyme (parent)
chain: AUAAAAGCGCCAGAACUACAGAAAUGUAGUUGACGAGGAGGAGGUUUAUCGAAUUUUCGGCGGAUGCCUCCAAA

Key:
Conditions in all cases: with glucosamine-6-phosphate
glucosamine-6-phosphate [1] = variants of: B1; assay: self-cleavage kobs at 640 uM GlcN6P; higher = faster cleavage; RNA array
Summary of the method: (§1)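 Weighted Michaelis–Menten fits across concentrations supplied kcat and KM, based on kobs from one- or two-exponential decay fits to normalised per-tile medians. The data came from barcoded ribozyme variants transcribed in situ by E. coli RNA polymerase on sequenced MiSeq chips and tracked at 37 °C by a hybridised Cy3 probe. Glucosamine-6-phosphate (40 μM to 10 mM) in HEPES/KCl/Mg(OAc)2 buffer was flowed in.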

glucosamine-6-phosphate [2] = variants of: B1; assay: self-cleavage kobs at 2500 uM GlcN6P; higher = faster cleavage; RNA array
Summary of the method: as §1

glucosamine-6-phosphate [3] = variants of: B1; assay: self-cleavage kobs at 10000 uM GlcN6P; higher = faster cleavage; RNA array
Summary of the method: as §1

glucosamine-6-phosphate [4] = variants of: B1; assay: self-cleavage kobs at 160 uM GlcN6P; higher = faster cleavage; RNA array
Summary of the method: as §1

Variant	self-cleavage kobs at 640 uM GlcN6P (glucosamine-6-phosphate [1]) [s⁻¹]	self-cleavage kobs at 2500 uM GlcN6P (glucosamine-6-phosphate [2]) [s⁻¹]	self-cleavage kobs at 10000 uM GlcN6P (glucosamine-6-phosphate [3]) [s⁻¹]	self-cleavage kobs at 160 uM GlcN6P (glucosamine-6-phosphate [4]) [s⁻¹]
G37A G40A C58A	< 1e-05			
G37A G43U G62U G66C C67A	< 1e-05	< 1e-05	< 1e-05	
G37A G51U U57G C68A	< 1e-05			
G37C G41A G44A G51C C61A C71A	< 1e-05	< 1e-05		< 1e-05
G37C G59A C67G	< 1e-05			< 1e-05
G37C G62U C68U	< 1e-05	< 1e-05		
G37U A39C A64G U69G	< 1e-05			
G37U G43U G63U C67G	< 1e-05	< 1e-05		
G37U U47A U56A C61U	< 1e-05			
G38A G41C U54G C61A	< 1e-05	< 1e-05		
G38A U45C C70G	< 1e-05			
G38C C58A	< 1e-05	< 1e-05	< 1e-05	< 1e-05
G38C C58G	< 1e-05		< 1e-05	< 1e-05
G38U A48U	< 1e-05	< 1e-05		< 1e-05
G38U G62C	< 1e-05			< 1e-05
G38U U46C A53U	< 1e-05	< 1e-05	< 1e-05	
G38U U47C G63C	< 1e-05			
G38U U56A	< 1e-05			
G38U U65G C70U	< 1e-05			< 1e-05
A39C A52G C61G	< 1e-05			< 1e-05

Variant	self-cleavage kobs at 640 uM GlcN6P (glucosamine-6-phosphate [1]) [s⁻¹]	self-cleavage kobs at 2500 uM GlcN6P (glucosamine-6-phosphate [2]) [s⁻¹]	self-cleavage kobs at 10000 uM GlcN6P (glucosamine-6-phosphate [3]) [s⁻¹]	self-cleavage kobs at 160 uM GlcN6P (glucosamine-6-phosphate [4]) [s⁻¹]
A39G U46A G59C C71G	< 1e-05	< 1e-05	< 1e-05	
A39G U47G G59C	< 1e-05			
A39U G41C G60A	< 1e-05			
A39U G44U U49A	< 1e-05	< 1e-05		
A39U G51C	< 1e-05	< 1e-05	< 1e-05	
G40A A42U U49C C58G A64G C70G	< 1e-05	< 1e-05		< 1e-05
G40A G60A U65A	< 1e-05	< 1e-05		< 1e-05
G40C U47G	0.000157 ± 2.4e-05	0.00041 ± 5.3e-05		7.96e-05 ± 1.8e-05
G40U A52G U69G	< 1e-05			
G40U C58U G66U	< 1e-05	< 1e-05		< 1e-05
G40U G59A G63U	< 1e-05			
G40U G62C C70A	< 1e-05			
G40U U65G	0.000417 ± 0.00014	0.00108 ± 0.00028	0.0019 ± 0.00044	
G41A G51C G63A C67A	< 1e-05			
G41U U45G	0.000129 ± 1.7e-05	0.000339 ± 9.1e-05	0.000243 ± 4.4e-05	3.13e-05 ± 1.4e-05
G41U U45G U47A C71U	5.62e-05 ± 2.2e-05			
A42C U49C	< 1e-05	< 1e-05		< 1e-05
A42G G51A G59C	< 1e-05			
A42G U55A A64C	< 1e-05			
A42G U55G A64G C71G	0.000116 ± 3.7e-05	5.98e-05 ± 2e-05		

Variant	self-cleavage kobs at 640 uM GlcN6P (glucosamine-6-phosphate [1]) [s⁻¹]	self-cleavage kobs at 2500 uM GlcN6P (glucosamine-6-phosphate [2]) [s⁻¹]	self-cleavage kobs at 10000 uM GlcN6P (glucosamine-6-phosphate [3]) [s⁻¹]	self-cleavage kobs at 160 uM GlcN6P (glucosamine-6-phosphate [4]) [s⁻¹]
A42U C50U G51C	< 1e-05	< 1e-05		
A42U U47G G63A G66U	< 1e-05			
G43A A52G A64C U65G	< 1e-05		< 1e-05	
G43A U57C U69A	< 1e-05			
G43C G63C	< 1e-05	< 1e-05		< 1e-05
G43U A52U A64U	< 1e-05	< 1e-05		< 1e-05
G43U G44A C61G A64U	< 1e-05	< 1e-05		
G43U U54G C58A C67U	< 1e-05			
G44C A53G C71U	< 1e-05			
G44C C50G	< 1e-05	< 1e-05	< 1e-05	< 1e-05
G44C U56A C61U	< 1e-05			< 1e-05
G44U A48G C70G	< 1e-05	< 1e-05		
G44U A52C C70G	< 1e-05			
U45A U46C U47G C70U	0.000175 ± 8.3e-05			
U45C A52G C70U	4.7e-05 ± 1.6e-05	6.92e-05 ± 1.3e-05		
U46A C50A	< 1e-05	< 1e-05		
U46A U54G C70G	0.000291 ± 6.7e-05	0.000305 ± 6.4e-05	0.000127 ± 2.9e-05	6.23e-05 ± 2e-05
U46G G51A A64U	< 1e-05	< 1e-05		
